Measured values reported in the supplement of paper PMC11417369.
± gives the standard deviation of the averaged measurements. This is one part of the list.

System: PfAP2-G AP2 domain (GST-tagged)
Experiment: gcPBM binding intensity (ln(normalized median fluorescence intensity)); higher = stronger DNA binding
Procedure, shortened: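 Binding intensity values are the highest Masliner-normalised natural-log median intensity among replicate spots of either probe orientation. The binding step lasted 1 h in 1× PBS with 1% milk, 0.2 mg/ml BSA, 0.5% salmon testes DNA and 0.03% Triton X-100, using GST-tagged P. falciparum DNA-binding domains expressed in E. coli on an Agilent 4 × 180k array of primer-extended double-stranded 36-bp intergenic genomic probes plus negative controls. Alexa488 anti-GST antibody and a 488 nm scan detected bound protein.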

In order of falling “gcPBM binding intensity (ln)” value:
1. TATAACATTATTTTGTGTACACATTCGGTTATATTA [XGTACX_site6310]  12 ± 1.1
2. AATGTAAATAAGTGTACACATATATAATACATACAT [CACACA_site4938]  11.6 ± 0.91
3. ACATATGGCACATATGTACACACGTATAGATAATAT [CACACA_site2024]  11.5 ± 0.54
4. CTAAAAAAATAATAAAGTACACAAACGAATATATAA [XGTACX_site668]  11.5 ± 0.83
5. CCATATTTAATAAAATGTACTCATTCTTTTATTTTA [XGTACX_site7802]  11.3 ± 0.7
6. TTAATAGTGGAAATATGTACATAATTTTGGTCTTTT [XGTACX_site1664]  11.3 ± 0.52
7. ATAATAGTTAAATGTACACACTAACTACATGGAATA [CACACA_site5753]  11.3 ± 0.86
8. ATATATATTTTTATAACACACAATGATGTACATTAC [CACACA_site1076]  11.3 ± 0.84
9. TTGATGATATCATTTTGTACTTATACGTATTTAAAA [XGTACX_site148]  11.2 ± 0.86
10. TTATATATACCATAATGTACTCTATTATATAAAAAA [XGTACX_site7464]  11.1 ± 0.8
11. TATTGGTAATGTAAATGTACATATAGATATTTACAT [XGTACX_site1922]  11 ± 0.64
12. GTGTTCATATATAGCCGTACATATGTCTTATGAACG [XGTACX_site5647]  11 ± 0.57
13. GTCTCCTTTATTTTTGGTACAGATAAGATAAAAGGA [XGTACX_site1591]  11 ± 0.7
14. TATAAATGATTAATTTGTACATATTTTACTTAATTG [XGTACX_site5271]  10.9 ± 0.63
15. TGTGTAGCTAGGGGGTTGCTAATTTTTGTTTTGACC [CACACA_negctrl_site634]  10.9 ± 0.57
16. TTTATTTTAATTTATTGTACATTGTTATCAAGTGCA [XGTACX_site1110]  10.8 ± 0.5
17. ATTCAATAAACGTATTGTACAAAAGAACGATATATT [XGTACX_site2533]  10.7 ± 0.35
18. AAAAAAATAAGGTGCACACAAAAAAAAAAAAAAAAA [CACACA_site812]  10.6 ± 0.82
19. ATCATAACTTGATACGCACACGTTATATAAATAAAA [CACACA_site4955]  10.5 ± 0.4
20. CCATTCAAATTTCGCACACACATACAAAAAAAAAAA [CACACA_site3093]  10.4 ± 0.54
21. TAAAATAATATTTATGTGCACATATAATTATTAATT  10.4 ± 0.31
22. TATATTTCTTATTACATACACACATATACATATATG [CACACA_site3202]  10.26 ± 0.042
23. GATTCCTTTAACCCTGCACACATACATACATTTATA [CACACA_site9308]  10.3 ± 0.18
24. AATCAAAATATATCTACACACATTTAAGTAACCCAT [CACACA_site5846]  10.3 ± 0.21
25. TTTGTGCTTATCCTAACACACACAACATATAAGAAA [CACACA_site9091]  10.3 ± 0.37
26. ACAAAATATTTTTCTTCACACATCCATTCAACATTT [CACACA_site5886]  10.17 ± 0.099
27. TAAATAAATAAATATATATATATATATATATATATA [XGTACX_negctrl_site70]  10.2 ± 1.2
28. AAGACAAATTGTGACACACACAAAAAAAAAAAAAAA [CACACA_site3727]  10.2 ± 0.48
29. CTGTTCAAAATATGAACACACACATATATATATATA [CACACA_site8638]  10.1 ± 0.38
30. ACAAAAAAAAAAAAAATACACACACATAAAAAAAAA [TGCATGCA_negctrl_site333]  10.1 ± 0.13
31. TATTGGATCACACAAAAATGTATAAATAAATAGAAA [TGCATGCA_negctrl_site490]  10.07 ± 0.099
32. GATTCATTTCGTAATACACACAACAAATATTTCAAA [CACACA_site1772]  10.1 ± 0.16
33. TATATATATATATATATTAATAATTAATATAAAAGA [XGTACX_negctrl_site32]  10 ± 0.21
34. TTGTTTCCGATGAAAGAAAGGAAATTATAATATATC [GTGCAC_negctrl_site516]  10.03 ± 0.057
35. AATCAAAACATTAAAAAGAAAAAATATATATATATA [CACACA_negctrl_site366]  9.99 ± 0.9
36. ATAGATGCATATTATACACACATATGTAAATACATT [CACACA_site4691]  9.97 ± 0.014
37. ATATAGATCTATAATACACACTTATGAAATGTCTAA [CACACA_site6946]  9.935 ± 0.049
38. AAAAAAAGAAATTAGGTGCATAGCATTAACCGATAA [GTGCAC_site9582]  9.91 ± 0.042
39. CCACTATATAAAATCACACATTTATATTATACATAT [CACACA_site4570]  9.89 ± 0.014
40. TTATGTTGCGAGTTCTTAAGATATAAAAAATTCTTC [GTGCAC_negctrl_site45]  9.85 ± 0.057
41. TAATAATATAATAATACACACTCATTATATATATAA [CACACA_site6045]  9.73 ± 0.014
42. TTGAAGTTAATAAAAACTTTATACATGAAATTATTT [CACACA_negctrl_site684]  9.73
43. ATTATCAAAAAAAAAAAAAAAAAAAAAAAAAAAAAA [CACACA_negctrl_site1118]  9.61 ± 0.44
44. TGAGAATAAAAAAAAGGGATTATTAGATTTCTCCTT [TGCATGCA_negctrl_site326]  9.45 ± 0.23
